Patent publication US20070098715A1 (published 2007)
Numbering of substitutions follows the chain as printed.

B1: Ten-M2-120 (antibody, V domains shown)
VH: QVQLVESGGGVVQPGRSLRLSCAASGFTFSSYGMHWVRQAPGKGLEWVAVLWYDGSKKFYADSVKGRFTISRDNSKNTLYLQMNSLRAEDTALYYCARGPWNYYYYGMDVWGQGTTVTVSS
VL: EIVLTQSPGTLSLSPGERATLSCRASQSVISSYLAWYQQKPGQAPRLLIYNASNRATGIPDRFSGSGSGTDFTLTISRLEPEDFAVYYCQQYGSSPITFGQGTRLEIK
notes: also called Mab120
B2: Ten-M2-140 (antibody, IgG2, V domains shown)
VH: B1 VH with V2E, Y32H, V50I, L51I, Y80S, L93V
VL: B1 VL with L21F, S32N, A52T, N54S, D61G, S66G, S77T
notes: Fully human mAb from IgG2 kappa XenoMouse (B cell clone); also called Mab140; anti-Ten-M2 monoclonal antibody clone 140
B3: Ten-M2-179 (antibody, IgG2, V domains shown)
VH: QVQLVESGGGVVQPGRSLRLSCAASGFTFSSYGMHWVRQAPGKGLEWVAFIWYDGSNKYYADSVKGRFTISRDNSKNTLYLQMNSLRAEDTAVYYCARDGSSGWYFFDYWGQGTLVTVSS
VL: DIVMTQTPLSLSVTPGQPASISCKSSQSLLHSDRQTYLFWYLQKPGQPPQLLIYEVSNRFSGVPDRFSGSGSGTDFTLKISRVEAEDVGVYYCMQSIQLPPTFGPGTKVDIK
notes: Fully human mAb from IgG2 kappa XenoMouse (B cell clone); also called Mab179
B4: Ten-M2-188 (antibody, IgG2, V domains shown)
VH: QVQLVQSGAEVKKPGASVKVSCKASGYTFTGYYMHWVRQAPGQGLEWMGWINPNSGGTNSAQRFQGRVTMTRDTSIYTAYMELSRLRSDDTAVYYCAREYRSGRYYNGMDVWGQGTTVTVSS
VL: DIQLTQSPSSLSASVGDRVTITCRASQDISNYLAWYQQKPGKVPKLLIYAASTLQSGVPSRFSGSGSGTDFTLTISSLQPEDIATYSCQKYSSTPFTFGPGTKVDIK
notes: Fully human mAb from IgG2 kappa XenoMouse (B cell clone)
B5: Ten-M2-199 (antibody, IgG2, V domains shown)
VH: QVQLVQSGAEVKKPGASVKVSCKASGYTFTNYDINWLRQASGQGLEWMGWMNPDSGNTGYAQRFQGRVTMTRDTSISTAYMELSSLRSEDTAVYYCARYISSLHYYYYGMDVWGQGTTVTVSS
VL: DIQMTQSPSSLSASVGDRVTITCRASQSINSYLNWYQQKPGKAPRLLIYAASNLQSGVPSRFSGSGSGTDFTLTISSLQPEDFSTYYCQQSHNTPLTFGGGTKVEIK
notes: Fully human mAb from IgG2 kappa XenoMouse (B cell clone); also called Mab199
B6: Ten-M2-213 (antibody, IgG2, V domains shown)
VH: QVQLVQSGAEVKKPGASVKVSCKASGYTFTNYDINWVRQATGQGLEWMGWMNPNSGNTGYAQKFQGRVTMTRNTSIRTAYMELSSLRSEDTAVYYCARGPGGSFYYYYGMDVWGQGTTVTVSS
VL: DIQMTQSPSSLSASVGDRVTITCRASQSISSYLNWYQQKPGKAPNLLIYTASSLQSGVPSRFSGSGSGTVFTLTISSLQPEDFATYYCQQSSSTPFTFGPGTKVDFK
notes: Fully human mAb from IgG2 kappa XenoMouse (B cell clone); also called Mab 213

Legend:
[1] = target: T1, Ten-M4 (Cur105) expressed endogenously on PC3 cell line (UniProt Q6N022 1-2769, limits assumed); assay: fluorescence on PC3 cells (Ten-M4, Cur105), B cell clone supernatant, Cy5 anti-human IgG Fc; column Crossreact?
T1 construct: whole, on cells; also called Ten-M4 (CR105); PC3 cell line (Cur105)

[2] = target: T2, Ten-M3 (Cur026) on a stable cell line (UniProt Q9P273 1-2699, limits assumed); assay: fluorescence on Cur026 (Ten-M3) stable cell line, B cell clone supernatant, Cy5 anti-human IgG Fc
T2 construct: whole, on cells

[3] = target: T1, Ten-M4 (Cur105) expressed endogenously …; assay: fluorescence on PC3 cells (Ten-M4, Cur105), B cell clone supernatant, Cy5 anti-human IgG Fc
[4] = target: T2, Ten-M3 (Cur026) on a stable cell line; assay: fluorescence on Cur026 (Ten-M3) stable cell line, B cell clone supernatant, Cy5 anti-human IgG Fc; column Crossreact?

Binder | binding result [1] | X Geo Mean [2] | X Mean [2] | X Geo Mean [3] | X Mean [3] | binding result [4]
B1 | no binding | 3.42 | 3.99 | 3.34 | 3.96 | no binding
B2 | no binding | 3.13 | 3.66 | 3.45 | 4.04 | no binding
B3 | no binding | 8.05 | 22.8 | 3.28 | 3.87 | 
B4 | no binding | 3.16 | 3.7 | 3.5 | 4.47 | no binding
B5 | no binding | 3.25 | 3.8 | 3.27 | 3.86 | no binding
B6 | no binding | 3.01 | 3.45 | 3.33 | 3.92 | no binding
